Results on 44 molecules are retold here after article PMC4336329 (PLoS ONE, 2015).

Among all 310,000 compounds or so, about 14,000 (4.5%) showed an effect of 50% or more. Effects have a minus sign here. This is one part of the list.
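Also: peak tail current of the secondary pulse compared with the same well before compound.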

human ether-à-go-go-related gene (hERG) potassium channel, sequence (Q12809 whole entry, looked up): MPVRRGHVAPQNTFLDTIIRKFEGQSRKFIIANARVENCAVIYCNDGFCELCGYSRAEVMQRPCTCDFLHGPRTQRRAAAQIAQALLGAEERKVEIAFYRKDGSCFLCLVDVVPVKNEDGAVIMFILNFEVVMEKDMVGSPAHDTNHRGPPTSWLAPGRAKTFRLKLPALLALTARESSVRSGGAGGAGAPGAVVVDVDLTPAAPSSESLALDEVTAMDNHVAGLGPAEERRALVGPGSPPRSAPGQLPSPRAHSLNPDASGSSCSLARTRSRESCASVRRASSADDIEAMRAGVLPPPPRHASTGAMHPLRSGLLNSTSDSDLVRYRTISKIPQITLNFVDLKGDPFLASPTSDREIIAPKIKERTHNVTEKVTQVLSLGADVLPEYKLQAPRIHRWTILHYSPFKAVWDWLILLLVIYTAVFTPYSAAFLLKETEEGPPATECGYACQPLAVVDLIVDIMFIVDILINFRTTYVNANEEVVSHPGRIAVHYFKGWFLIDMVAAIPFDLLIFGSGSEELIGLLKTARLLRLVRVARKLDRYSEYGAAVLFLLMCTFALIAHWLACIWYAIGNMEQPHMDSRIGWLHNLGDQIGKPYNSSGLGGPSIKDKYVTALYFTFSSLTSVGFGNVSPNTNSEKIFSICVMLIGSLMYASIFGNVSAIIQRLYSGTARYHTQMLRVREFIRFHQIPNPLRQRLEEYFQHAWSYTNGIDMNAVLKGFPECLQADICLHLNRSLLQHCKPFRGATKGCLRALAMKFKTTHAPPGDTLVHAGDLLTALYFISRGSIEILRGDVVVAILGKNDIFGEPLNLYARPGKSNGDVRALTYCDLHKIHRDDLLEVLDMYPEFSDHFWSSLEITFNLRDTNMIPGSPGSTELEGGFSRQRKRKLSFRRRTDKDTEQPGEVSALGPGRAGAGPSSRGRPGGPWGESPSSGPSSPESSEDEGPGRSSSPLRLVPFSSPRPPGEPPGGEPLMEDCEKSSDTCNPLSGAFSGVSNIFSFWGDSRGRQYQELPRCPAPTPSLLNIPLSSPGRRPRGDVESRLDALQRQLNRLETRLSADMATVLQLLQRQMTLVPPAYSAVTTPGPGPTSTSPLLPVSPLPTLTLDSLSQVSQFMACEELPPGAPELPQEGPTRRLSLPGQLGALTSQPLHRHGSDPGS

The assay concerns the target human ether-à-go-go-related gene (hERG) potassium channel (human, UniProt Q12809). Description: primary screen, population patch clamp on CHO cells stably expressing hERG.
Take `O=[N+]([O-])c1ccc(N2CCN(c3ccc(F)cc3)CC2)nc1`: the “hERG current change (%, negative = inhibition) at 10uM” value is listed as -8.33%.

For the molecule `COc1ccc(CC2(CO)CCN(Cc3cnn(-c4ccc(F)cc4)c3)CC2)cc1`, the “hERG current change (%, negative = inhibition) at 10uM” value was -76.4%.

As for `O=C1CCCN1CC(O)CS(=O)(=O)c1ccccc1` (centres unmarked), the “hERG current change (%, negative = inhibition) at 10uM” value worked out at 26.1%.

On to `Cc1ccc(NC(=O)NC2(C(=O)NCc3ccccc3)CCCCC2)cc1`, for which the “hERG current change (%, negative = inhibition) at 10uM” value is given as -3.97%.

As for `O=C1c2cccc3cccc(c23)C(=O)C1(O)O`, the “hERG current change (%, negative = inhibition) at 10uM” value is listed as -13.8%.

For `CCC1(c2ccccc2)NC(=O)N(CC(=O)Nc2ccccc2C(=O)NC2CCCC2)C1=O` (centres unmarked), the “hERG current change (%, negative = inhibition) at 10uM” value was -53.8%.

With `Cc1cc(C(F)(F)F)n2nc(-c3cnn(C)c3C(F)(F)F)c(Cl)c2n1`, the “hERG current change (%, negative = inhibition) at 10uM” value is given as -10.3%.

As for `CCOC(=O)c1ccc(NC(=O)CN2CCN(c3ccccc3)CC2)cc1`, the “hERG current change (%, negative = inhibition) at 10uM” value came to 5.34%.

In the case of `O=C1CSC(c2ccc(F)cc2)N1c1nc2ccccc2s1` (centres unmarked), the “hERG current change (%, negative = inhibition) at 10uM” value is given as -20.8%.

Take `CC(C)c1ccccc1NC(=S)N1CCN(Cc2ccc3c(c2)OCO3)CC1`: the “hERG current change (%, negative = inhibition) at 10uM” value is reported as -13.5%.

On to `CCc1cc(=O)oc2c(C)c(OCC(=O)NC3CC(C)(C)NC(C)(C)C3)ccc12`, for which the “hERG current change (%, negative = inhibition) at 10uM” value worked out at 6.12%.

For the molecule `COc1ccc(C(=O)NNC(=O)CSc2nnc(COc3ccccc3)n2C)cc1`, the “hERG current change (%, negative = inhibition) at 10uM” value is reported as -4.17%.

Turning to `C[C@@H](C(=O)NC1CCCC1)N1C(=O)N2CCc3c([nH]c4ccccc34)[C@@]2(C)C1=O`, the “hERG current change (%, negative = inhibition) at 10uM” value was -27.5%.

As to `Cc1cnc(C(=O)OCC(=O)NC(C)C)cn1`, the “hERG current change (%, negative = inhibition) at 10uM” value is listed as 8.77%.

Regarding `O=C(NC1CCCCC1)C12CC3CC(C1)CC(n1cncn1)(C3)C2`, the “hERG current change (%, negative = inhibition) at 10uM” value came out at 0.934%.

Consider `O=C(NC1CCCCC1)c1cc(-c2ccccc2Cl)on1`, for which the “hERG current change (%, negative = inhibition) at 10uM” value is on record as 26.8%.

For the molecule `CC12CCC(=O)N1C(C(=O)Nc1ccc(SC(F)F)cc1)CS2` (centres unmarked), the “hERG current change (%, negative = inhibition) at 10uM” value was -57.6%.

For the molecule `Cc1cccc(C)c1OCCCCn1cnc2ccccc2c1=O`, the “hERG current change (%, negative = inhibition) at 10uM” value was -10.1%.

With `COc1ccc(S(=O)(=O)NC(CC(=O)NCc2ccco2)c2ccco2)cc1` (centres unmarked), the “hERG current change (%, negative = inhibition) at 10uM” value is listed as 0.0401%.

Consider `COCC(=O)Nc1cc(OC)ccc1OC`, for which the “hERG current change (%, negative = inhibition) at 10uM” value is given as 10.8%.

For `O=C(CSc1nnc(CNC(=O)c2ccco2)o1)Nc1ccccc1`, the “hERG current change (%, negative = inhibition) at 10uM” value came to 17.2%.

`O=C(O)CCC(=O)NNC(=O)c1cccc(Br)c1`: the “hERG current change (%, negative = inhibition) at 10uM” value is -0.791%.

Turning to `CCn1c(SCC(=O)Nc2cccc(OC)c2)nc2ccccc2c1=O`, the “hERG current change (%, negative = inhibition) at 10uM” value is -47.1%.

Turning to `CC(=O)c1c(C(C)=O)c(C)n(-c2cccc([N+](=O)[O-])c2)c1C`, the “hERG current change (%, negative = inhibition) at 10uM” value stood at 0.766%.

With `CSCCn1c(C(C)(C)C)cc(C(=O)O)c1C`, the “hERG current change (%, negative = inhibition) at 10uM” value was 12.7%.

`O=C(OCc1nc2ccccc2s1)c1ccccc1O`: the “hERG current change (%, negative = inhibition) at 10uM” value worked out at 15.5%.

For the molecule `CCC(C)NC(=O)c1ccc(NC(=O)CC2SC(N3CCCC3)=NC2=O)cc1` (centres unmarked), the “hERG current change (%, negative = inhibition) at 10uM” value was 0.357%.

In the case of `Cc1ccc(-c2onc3ccc(C4OCCO4)cc23)cc1`, the “hERG current change (%, negative = inhibition) at 10uM” value turned out to be 4.32%.

As for `COC(=O)C(C)NC(=S)N1CCN(c2c(F)cc3c(=O)c(C(=O)O)cn(C4CC4)c3c2OC)CC1C` (centres unmarked), the “hERG current change (%, negative = inhibition) at 10uM” value is recorded as -21.5%.

For the molecule `Cc1ccc2c(c1)N(C(=O)CCC(=O)N1CCC(C(N)=O)CC1)CCO2`, the “hERG current change (%, negative = inhibition) at 10uM” value is listed as -3.46%.

`OCC(O)C1OC(Nc2ccc(Br)cc2)C(O)C1O` (centres unmarked): the “hERG current change (%, negative = inhibition) at 10uM” value is recorded as 16.7%.

`Cc1cc(C)n(CCC(=O)N/N=C/c2ccc(O)cc2O)n1`: the “hERG current change (%, negative = inhibition) at 10uM” value was determined as 0.732%.

On to `Cc1cccc(NC(=O)c2cc3c(=O)n4ccccc4nc3n(CC(C)C)c2=N)c1`, for which the “hERG current change (%, negative = inhibition) at 10uM” value is on record as -78%.

`N#Cc1c(N)n(CCOC(=O)c2cccc([N+](=O)[O-])c2)c2nc3ccccc3nc12`: the “hERG current change (%, negative = inhibition) at 10uM” value came to 8.35%.

In the case of `CC(OC(=O)c1oc2ccccc2c1COc1ccccc1)C(N)=O` (centres unmarked), the “hERG current change (%, negative = inhibition) at 10uM” value was found to be 11.1%.

Turning to `C/C=C\C(=O)Nc1cccc(C2=NOC3(C2)C[C@@H](C(N)=O)N(C(=O)c2ccc(Cl)cc2)C3)c1` (some centres unmarked), the “hERG current change (%, negative = inhibition) at 10uM” value is -1.39%.

With `COCCCn1c(SCC(=O)N2CC(=O)Nc3ccccc32)nnc1-c1ccoc1C`, the “hERG current change (%, negative = inhibition) at 10uM” value is given as 11%.

As to `O=C(Nc1ccc(Cl)cc1F)c1ccc(COc2c(F)c(F)c(F)c(F)c2F)o1`, the “hERG current change (%, negative = inhibition) at 10uM” value is listed as 1.24%.

For the molecule `CC(NC(=O)C1CCN(S(=O)(=O)c2ccc(Br)s2)CC1)c1ccccc1` (centres unmarked), the “hERG current change (%, negative = inhibition) at 10uM” value is given as -0.752%.

Consider `Cc1c(C)n(Cc2ccccc2)c2ncnc(N)c12`, for which the “hERG current change (%, negative = inhibition) at 10uM” value is given as -3.84%.

Turning to `C=CCOc1ccc(C2C(C(=O)c3cccs3)=C(O)C(=O)N2c2nnc(C)s2)cc1` (centres unmarked), the “hERG current change (%, negative = inhibition) at 10uM” value came out at 18.8%.

With `O=C(/C=C/c1ccc([N+](=O)[O-])cc1)c1cccs1`, the “hERG current change (%, negative = inhibition) at 10uM” value is recorded as -23.4%.

As to `O=C(CSc1nnc(NC(=O)C2CC(=O)N(c3ccc(F)cc3)C2)s1)NC1CCCC1` (centres unmarked), the “hERG current change (%, negative = inhibition) at 10uM” value turned out to be 13.9%.

For `COc1ccccc1N/N=C/c1ccc2c(c1)OCO2`, the “hERG current change (%, negative = inhibition) at 10uM” value is -8.93%.
